From PubChem BioAssay AID1159614 (National Center for Advancing Translational Sciences (NCATS), 2016)
Screen size: about 45,000 compounds; about 65 (0.1%) were called active. The call rests on the fitted dose curve; in most records, active means well fitted activation curve with a large enough effect; inconclusive means small, poorly fitted or top-dose-only effect; inactive means no such curve, though single readings can be large or run the other way. The list shows a part of the results.

These molecules were tested against Galactocerebrosidase (Homo sapiens) (UniProt P54803) (assay: A Novel Cell-Based Assay to Identify Small Molecules for B -Galactocerebrosidase). Details: 145M-Twi-hGALC-G270D cells (Twitcher mouse brain line with human GALC G270D), HMU-beta-Gal fluorescence, 48 h; series mostly up to 57.5 µM; activation: at the top concentration.
Chain of UniProt P54803 (P54803 whole entry, looked up): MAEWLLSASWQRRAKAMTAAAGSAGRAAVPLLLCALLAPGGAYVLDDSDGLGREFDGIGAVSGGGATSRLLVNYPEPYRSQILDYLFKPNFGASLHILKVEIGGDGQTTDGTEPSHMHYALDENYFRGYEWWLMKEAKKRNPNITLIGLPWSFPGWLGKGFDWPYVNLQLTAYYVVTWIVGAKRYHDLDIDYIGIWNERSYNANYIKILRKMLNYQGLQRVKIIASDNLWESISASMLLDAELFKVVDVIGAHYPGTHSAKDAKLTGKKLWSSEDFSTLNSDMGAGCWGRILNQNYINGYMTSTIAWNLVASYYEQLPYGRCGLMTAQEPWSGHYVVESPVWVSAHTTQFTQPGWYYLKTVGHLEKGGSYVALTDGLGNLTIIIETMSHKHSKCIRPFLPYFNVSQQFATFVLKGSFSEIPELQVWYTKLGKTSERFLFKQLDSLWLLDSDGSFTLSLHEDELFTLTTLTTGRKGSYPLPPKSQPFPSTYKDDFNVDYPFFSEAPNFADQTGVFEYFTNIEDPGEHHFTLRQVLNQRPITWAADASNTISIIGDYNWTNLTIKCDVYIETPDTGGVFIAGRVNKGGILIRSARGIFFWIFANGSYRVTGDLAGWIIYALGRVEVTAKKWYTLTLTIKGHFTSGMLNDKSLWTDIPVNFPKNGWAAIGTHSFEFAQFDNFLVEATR
How it was run: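 Brain-derived Twitcher mouse 145M-Twi cells stably expressing human GALC-G270D or wild-type GALC, treated live, then residual GALC activity read by fluorescence of HMU-b-Gal substrate (0.1 mM final) in citrate-phosphate buffer pH 5.2 with sodium taurocholate. Signal increase indicates enhancement.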
Further: 0% is about no effect; nearly all actives have a fitted effect of over 65% in size.

activation, inactive:
CCn1ccc2c(OCC(=O)Nc3ccccc3C)cccc2c1=O -10.1%
Nc1c(C(=O)Nc2ccc(F)c(F)c2)sc2nc(-c3ccncc3)ccc12 -14.9%
COC(=O)c1cc(NC(=O)c2nn(C)c3c2COc2ccccc2-3)cc(C(=O)OC)c1 -6%
Cc1cc(CC(=O)O)n(C)c1C(=O)c1ccc(Cl)cc1 -7.94%
COc1ccc(S(=O)(=O)Nc2ccc3c(c2)CCCN3S(=O)(=O)c2ccc(C)cc2)cc1F -9.6%
COc1cccc(CNC(=O)c2cc(C)nc3c2c(C)nn3-c2cccc(F)c2)c1 -7.02%
O=C(Nc1ccc2nc(SCC(=O)N3CCCc4ccccc43)sc2c1)c1ccccc1 -32%
CCOC(=O)c1ccc(NC(=O)Nc2cc3c(cc2N2CCCC2)n(C)c(=O)n3C)cc1 -13.1%
COc1ccc(N2CCN(C(=O)c3cccc(NC(=O)c4nsc5ccccc45)c3)CC2)cc1 -10.8%
Cc1ccc(S(=O)(=O)NCCc2cn3ccsc3n2)cc1 -5.93%
COc1ccc(-n2nnnc2C2CCN(S(=O)(=O)c3ccc(C(C)(C)C)cc3)CC2)cc1 -10.4%
CCC(CC)C(=O)Nc1nc2c(s1)CC(C)CC2 (stereo unspecified) -24.9%
O=C(COCc1cc(-c2ccc3c(c2)OCO3)on1)N1CCN(c2ccccc2)CC1 -14.5%
COc1ccccc1NC(=O)C1=C(C)Nc2nc(SCc3ccccc3F)nn2C1c1cccs1 (stereo unspecified) -13.8%
Cc1cccc(N(C)C(=O)C(Cc2ccccc2)NS(=O)(=O)c2cccc3nsnc23)c1 (stereo unspecified) -31.5%
O=C(CN1Cc2ccccc2C1=O)Nc1cc(F)ccc1F -5.27%
Cc1ccc(C)c(NC(=O)N2CC=C(c3c[nH]c4ccccc34)CC2)c1 -32.5%
Cc1cc(C)c(NC(=O)CSc2nc(C)cc(C)c2C#N)c(C)c1 -15.1%
CC(=O)c1ccc(NC(=O)C2CCN(S(=O)(=O)c3ccc4c(c3)CCCN4C(=O)C3CCC3)CC2)cc1 10.3%
Cc1ccc2oc(=O)c3cnn(CC(=O)N(C)c4ccc(F)cc4)c3c2c1 -21.4%
CCOc1ccc(-n2c(SCC(=O)Nc3ccccc3OC)nc3c(oc4ccccc43)c2=O)cc1 1.65%
COc1ccccc1OCC(=O)N(Cc1ccc(N(C)C)cc1)CC1CCCO1 (stereo unspecified) -5.96%
COc1ccc(Nc2ccc3cc(S(=O)(=O)N4CCCC4)ccc3n2)cc1Cl -11.8%
CCCSc1nc(=O)c2c(n1C)NC(=O)CC2c1cccc(F)c1F (stereo unspecified) -7.56%
O=C(Cn1c(-c2cccs2)cc2cc(Cl)ccc21)NCc1ccccc1 -9.4%
COc1ccc(-n2nc3ccc(NC(=O)COc4ccc(C)c(C)c4)cc3n2)cc1 -15%
COc1ccc(N2CCN(C(=O)Cc3c(C(=O)O)c(C)cn3C)CC2)cc1 -6.98%
CCOC(=O)c1c(NC(=O)CCCOc2ccc(C(C)(C)C)cc2)sc2c1CCC2 -10%
CCc1ccccc1NC(=O)CN(Cc1ccccc1)S(=O)(=O)c1ccc2nc(C)sc2c1 -9.23%
CC(=O)c1cccc(NC(=O)c2cnn(-c3cccc(C)c3)c2-n2cccc2)c1 -15%
Cc1ccc(-c2c(C(=O)N3CCN(c4cccc(C)c4C)CC3)oc(=O)c3ccccc23)cc1 5.58%
CCC(=O)N1CCc2cc(Br)cc(S(=O)(=O)NCCc3ccccc3Cl)c21 -8.2%
Cc1cccc(NC(=O)Cn2cc(S(=O)(=O)c3ccc(F)cc3)c(=O)c3cc4c(cc32)OCO4)c1 -1.05%
CCc1cc(C(=O)Nc2cnn(Cc3ccc(F)cc3)c2)no1 -17.4%
O=C(O)COC(=O)Cc1ccccc1Nc1c(Cl)cccc1Cl -13.1%
COc1ccc(OC)c(CCNC(=O)c2cc3c(-c4ccccc4F)nn(C)c3s2)c1 -8.88%
COc1ccccc1CCNC(=O)CCn1c(=O)c2cccn2c2ccc(F)cc21 0.535%
CCOc1cc(C(=O)Nc2ccc3oc(-c4ccc(CC)cc4)nc3c2)cc(OCC)c1OCC -7.65%
COc1ccc(CCNC(=O)CCc2c(C)nc3cc(-c4ccccc4)nn3c2C)cc1OC -12.3%
Cc1cc(C)cc(NC(=O)CSCn2nnc3c(=O)[nH]c(Cc4ccc(F)cc4)nc32)c1 -14%
CCCCN(Cc1ccccc1)C(=O)CN(C)S(=O)(=O)c1ccc2c(c1)c(=O)n(C)c(=O)n2C 3.03%
Cc1ccc(OCC(=O)Nc2ccc3nc(SCc4ccccc4)sc3c2)cc1 1.54%
CCc1cc2c(cc3c(=O)n(CCCC(=O)NCc4ccccc4Cl)nc(CC)n32)s1 -15.4%
Cc1cccc(OCc2ccc(-c3nc(C#N)c(N4CCC(C(N)=O)CC4)o3)o2)c1 5.29%
CCOC(=O)c1cccc(NC(=O)Cn2c(=O)nc(-c3ccccc3)c3ccccc32)c1 -16.4%
O=C(Nc1cc(C(F)(F)F)ccc1Cl)c1cc(S(=O)(=O)NCc2ccccc2)ccc1F -8.34%
Cc1noc(/C=C/c2ccco2)c1S(=O)(=O)N1CCC(C(=O)Nc2ccc(F)cc2F)CC1 -0.153%
COCCCNC(=O)CC(c1cc(OC)c(OC)c(OC)c1)N1Cc2ccccc2C1=O (stereo unspecified) 7.64%
COc1ccc(NC(=O)C(Cc2ccccc2)NS(=O)(=O)c2ccc(Br)s2)cc1OC (stereo unspecified) -14%
CC(=O)Nc1cc(C(=O)NCc2ccccc2)ccc1Sc1ccc(C)cc1 -10.1%
CCCCNc1sc(S(=O)(=O)CC)nc1S(=O)(=O)c1ccc(C)cc1 -11.1%
Cc1ccc(N2CC(c3nnc(Cc4ccc(Cl)cc4)o3)CC2=O)cc1 (stereo unspecified) -12%
CNS(=O)(=O)c1cn(CC(=O)Nc2ccc(F)cc2F)cc1S(=O)(=O)NC -4.05%
CN(C(=O)CSc1cn(CC(=O)N2CCCCCC2)c2ccccc12)c1ccccc1 5.61%
O=C(NC1CCCCC1)c1ccc(Cn2c(SCc3cccc(F)c3)nc3cccnc32)cc1 0.65%
Cc1cccc(C(=O)Nc2ccc(-c3nc4ccccc4s3)c(C)c2)c1 -20.8%
Cc1ccc(CNC(=O)C(C(C)C)N2Cc3ccccc3C2=O)cc1 (stereo unspecified) -13.2%
COc1ccc(N2CCN(CC(O)COc3ccccc3C(C)(C)C)CC2)cc1 (stereo unspecified) -20.9%
CCN(c1ccc(OC)cc1)S(=O)(=O)c1c(C(=O)N2CCCCCC2)c(C)n(C)c1C -13.3%
CCOc1ccc(OCC)c(NC(=O)c2cc(C)nc3c2c(C)nn3-c2cccc(Cl)c2C)c1 -12.6%
CCOCCCNC(=O)c1cnc2sc(N3CCCCCC3)nn2c1=O -0.548%
CCc1ccc(NC(=O)CSC2=Nc3ccccc3C3=NC(CCC(=O)NCc4ccccc4OC)C(=O)N23)cc1 (stereo unspecified) -12.9%
CCOc1ccc(NC(=O)Cn2c(=O)n(CCc3ccccc3)c(=O)c3c4c(sc32)CN(C(C)=O)CC4)cc1 -16.3%
Cc1nn(-c2ccccc2)c(OC(=O)c2ccc(Br)cc2)c1S(=O)(=O)c1ccccc1 2.1%
O=C(CCc1nc(-c2ccccc2F)no1)Nc1cccc(C(F)(F)F)c1 0.827%
Cc1ccc(CC(=O)N(Cc2nc(-c3ccc(C)cc3)no2)C(C)C)cc1 -37.2%
Cc1ccc(C)c(N2CCN(C(=O)c3cccc(-n4c(C)nc5cccnc54)c3)CC2)c1 3%
CCn1c(CN2CCN(c3cccc(Cl)c3)CC2)nc2c1c(=O)[nH]c(=O)n2C -3.82%
COCCCNc1ncnc2c1c(-c1ccccc1)cn2-c1ccc(C)c(Cl)c1 -10.3%
Cc1cc2nn(-c3ccc(Cl)cc3)nc2cc1NC(=O)C(C)C 7.18%
COc1ccc2c(c1)c1c(c(=O)n(-c3ccccc3C)c(=O)n1Cc1ccccc1C)n2C -18.1%
COc1ccc(OC)c(NC(=O)CN2C(=O)CC(c3ccco3)Sc3ccccc32)c1 (stereo unspecified) -14.5%
OC1(c2ccc(Cl)c(C(F)(F)F)c2)CCN(CCCC(c2ccc(F)cc2)c2ccc(F)cc2)CC1 -16%
O=C(COc1ccc(Cl)cc1)Nc1cc(-c2ccccc2)no1 -20.9%
Cn1c(=O)c2sccc2n2c(CCCC(=O)Nc3ccc(F)cc3F)nnc12 -16%
Cn1nc(C(=O)N2CCN(c3ccccc3)CC2)c2c1-c1ccccc1SC2 -6.19%
O=C(c1ccc2c(c1)OCO2)c1cn(Cc2ccc(F)cc2)c2ccccc2c1=O -13.8%
CCCCN(CC)C(=O)Cn1c(=O)n(-c2ccc(OCC)cc2)c(=O)c2c3c(sc21)CCC3 -16.4%
CCCOC(=O)c1c(NC(=O)c2nc3ncccn3n2)sc(C(=O)OCC)c1C -15.8%
CC(=O)c1cccc(-n2c(=O)c3c4c(sc3n(Cc3ccccc3Cl)c2=O)CN(C(C)=O)CC4)c1 -16.8%
COc1cc(OC)c(C2C=C(C(=O)O)Nc3ncnn32)cc1OC (stereo unspecified) -3.43%
Cc1ccc(C2CCN(C(=O)c3cnn(-c4ccccc4Cl)c3C3CCN(C(=O)OC(C)(C)C)CC3)C2)cc1 (stereo unspecified) -4.09%
Cc1c(F)cccc1NC(=O)C1CCCN1S(=O)(=O)c1ccc(F)cc1 (stereo unspecified) -15.8%
COc1ccccc1CNC(=O)c1cn(C)c2ccc(S(=O)(=O)N3CCC(C)CC3)cc2c1=O -19.4%
Cc1ccc(C(=O)Nc2cccc(C(=O)OCc3cc(=O)n4c5c(sc4n3)CCCC5)c2)cc1 -9.25%
Cc1ccc(NC(=O)C2CCCN(S(=O)(=O)c3cccc4cccnc34)C2)cc1Cl (stereo unspecified) -9%
Cc1ccc2[nH]cc(C(c3ccccc3)c3cccs3)c2c1 (stereo unspecified) -19.6%
COc1cc(OC)c(NC(=O)c2ccc3nc(C(C)C)oc3c2)cc1Cl -7.03%
CCOC(=O)c1c(C)n(-c2ccccc2)c2ccc(OC(=O)c3ccccc3Cl)cc12 -12.7%
CC(C)COc1ccc(C(=O)NCC2OCCc3ccccc32)cc1 (stereo unspecified) -9.4%
COc1ccccc1N1CCN(C(=O)C2CCN(S(=O)(=O)c3cccc4nonc34)CC2)CC1 -3.25%
Nc1ncc(S(=O)(=O)NCc2ccccc2F)cn1 4.18%
Cc1ccc(Nc2cc(C(=O)NC3CCCC3)c3ccccc3n2)cc1C -6.36%
NC(=O)c1c(NC(=O)c2noc3c2CCCC3)sc2c1CCCC2 -24.2%
CCOc1ccc(CCNC(=O)C2CCCN(c3nnc(C)c4c(C)n(-c5ccccc5)nc34)C2)cc1 (stereo unspecified) -14.3%
CCOC(=O)Cn1nc(C)c(NC(=O)COc2ccc(OC)cc2)c1C -14.9%
